Test results: PubChem BioAssay AID485281 (National Center for Advancing Translational Sciences (NCATS), 2010)
Among all 350,000 compounds or so, about 260 (0.074%) were called active. Inconclusive results, whose numbers are uncertain, are shown with a selection of clear calls. Calls follow the shape of the dose curve; as a rule, active = well fitted inhibition curve with a large enough effect; inconclusive = small, poorly fitted or top-dose-only effect; inactive = no such curve, though single readings can be large or run the other way. Potencies beside an inconclusive call are fits to weak or partial responses and may not hold up.

molecular target: Ferritin light chain (Equus caballus) (UniProt P02791); assay: qHTS Assay for Identification of Novel General Anesthetics; conditions: apoferritin/1-aminoanthracene competitive binding, fluorescence; activity change, negative = displacement: at 77.5 µM (top of the series); also: nearly all actives have a fitted effect of over 20% in size
In short: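 Steps: apoferritin (10 uM) was premixed with half-saturated 1-AMA in PBS, compounds were pin-transferred, plates stood 10 min at room temperature, fluorescence was read at 380/535 nm, and curves were fitted with a Hill equation.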
% is scaled to controls: 0 for no effect and ±100 for the full control effect; potency is read from the fitted curve at half-maximal effect; tags tell the direction and shape of the fitted curve.

UniProt P02791, sequence (P02791 whole entry, looked up): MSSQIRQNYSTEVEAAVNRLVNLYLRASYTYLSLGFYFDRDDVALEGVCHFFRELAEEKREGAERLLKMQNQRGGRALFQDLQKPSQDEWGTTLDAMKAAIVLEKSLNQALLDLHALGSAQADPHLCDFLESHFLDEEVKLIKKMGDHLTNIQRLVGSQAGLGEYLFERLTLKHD

Potency, inconclusive:
Cc1nnc(SCC(=O)NCc2cccc(F)c2)c2nn(-c3ccccc3)c(C)c12 6.31 µM [inhibitor, partial curve], CC(C)(C)c1ccc(CNC(=O)c2ccc3c(c2)NC(=O)CO3)cc1 35.5 µM [inhibitor, partial curve], CCCCSc1nc(C)c(C(C)=O)cc1C#N 39.8 µM [inhibitor, partial curve], COc1ccc(-c2nnc(SCC(=O)c3cccs3)n2-c2ccc(Cl)cc2)cc1 31.6 µM [inhibitor, partial curve], O=C(/C(C=Nc1cccc(C(F)(F)F)c1)=C(/O)c1ccco1)C(F)(F)F 31.6 µM [inhibitor, single point], Cc1ccc(-n2ncc(C(=O)NCCN3CCc4ccccc4C3)c2C2CCN(C(=O)OC(C)(C)C)CC2)c(C)c1 22.4 µM [inhibitor, partial curve], CCCc1cc(=O)[nH]c(SCC(=O)C(C)(C)C)n1 11.2 µM [inhibitor, partial curve, poor fit], c1ccc(CSc2nc3ccccc3[nH]2)cc1 28.2 µM [inhibitor, partial curve], O=C(COC(=O)C1COc2ccccc2O1)Nc1ccc2c(c1)CCC2 (stereo not given) 11.2 µM [inhibitor, partial curve], CCN(CC)S(=O)(=O)c1ccc(OCC(=O)NC(=O)c2ccccc2OC)c([N+](=O)[O-])c1 14.1 µM [inhibitor, partial curve], CC(C)(C)N(NC(=O)c1ccccc1)C(=O)c1cccc(C(=O)N(NC(=O)c2ccccc2)C(C)(C)C)c1 31.6 µM [inhibitor, single point], CCOC(=O)C(C)N1C(=O)S/C(=C/c2cc(C)n(-c3ccncc3)c2C)C1=O (stereo not given) 39.8 µM [inhibitor, partial curve], COc1ccc(-n2cnnc2SCC(=O)N2CCN(c3ccccc3)CC2)cc1 35.5 µM [inhibitor, single point], CC1CCCc2sc3ncn(N)c(=N)c3c21 (stereo not given) 28.2 µM [inhibitor, partial curve], CC(C)(C)c1cc(CNC2CS(=O)(=O)C[C@@H]2O)cc(C(C)(C)C)c1O (stereo not given in full) 35.5 µM [inhibitor, single point], COc1cc(NC(=S)N2CCN(c3ccccn3)CC2)c(OC)cc1Cl 28.2 µM [inhibitor, partial curve], CCN(Cc1ccccc1)C(=O)c1cccc(OC2CCN(C(=O)C3CC3)CC2)c1 25.1 µM [inhibitor, partial curve], CCOc1ccc(NC(=O)CSc2oc(-c3ccco3)nc2S(=O)(=O)c2ccc(Cl)cc2)cc1 6.31 µM [inhibitor, single point], CC(C)[C@H](NS(=O)(=O)c1ccccc1)C(=O)OCC(=O)NC(=O)c1cccn1C 25.1 µM [inhibitor, partial curve], CCOC(=O)c1c(Nc2ccc(OCC)cc2)nnc(-c2ccccc2)c1-c1ccccc1 25.1 µM [inhibitor, partial curve], FC(F)Oc1ccc(-c2csc(=Nc3cccnc3)n2CC2CCCO2)cc1 (stereo not given) 35.5 µM [inhibitor, partial curve], O=C(NC12CC3CC(CC(C3)C1)C2)c1ccco1 14.1 µM [inhibitor, partial curve], Cc1cccc(C(=O)NC(=S)NNC(=O)COc2ccc(Cl)cc2)c1 35.5 µM [inhibitor, partial curve], O=C(Cn1cnc2ccccc2c1=O)Nc1nnc(SCc2ccccc2)s1 8.91 µM [inhibitor, full curve, poor fit], COc1ccccc1-c1nnc2n1N=C(c1ccc(O)c(O)c1)CS2 35.5 µM [inhibitor, partial curve], CN(Cc1ccccc1)c1ncc(C=O)s1 35.5 µM [inhibitor, partial curve], Cc1cccc(NC(=O)C2(c3ccc([N+](=O)[O-])cc3)CCCC2)c1 35.5 µM [inhibitor, partial curve]

Potency, inactive:
COc1ccc(CCNC(=O)c2[nH]c(C)c(C(C)=O)c2C)cc1, O=C(O)c1cc(-c2c[nH]c3ccccc23)nc2cc3ccccc3cc12, N#C/C(=C\c1ccccc1)C(=O)Nc1ccccn1, O=C(Cn1c(=O)oc2ccccc21)N1CCCC1, Cc1cccc(C(=O)NCc2nnc(SCC(=O)Nc3ccccc3F)n2-c2ccccc2)c1, CCc1cccc(-n2nnc(-c3nc(-c4ccc5c(c4)OCO5)no3)c2C)c1, CCNS(=O)(=O)c1ccc(NC(=O)c2ccc(Cn3cc([N+](=O)[O-])cn3)o2)cc1, O=C(Nc1cccc(S(=O)(=O)N2CCCCCC2)c1)c1cc(=O)c2ccccc2o1, O=C(c1ccccc1)n1nc(-c2ccccc2)nc1NCc1ccco1, CCOc1ccc(N(CC(=O)NCc2ccc(C)cc2)S(=O)(=O)c2c(C)[nH]c(=O)[nH]c2=O)cc1, Nc1ccc2nc(-c3ccc(Cl)cc3)[nH]c2c1, Cc1ccccc1CN1CCN(C(=O)c2cccc3ccccc23)CC1, Cn1cc(C(=O)c2ccc(Cl)cc2Cl)cc1C=O, CCN1C2=NCCCN2c2cc(C)c(C)cc21, OCCNc1nc(Nc2ccc(Br)cc2)nc2ccccc12, O=C(Cc1ccccc1)NN1C(=O)/C(=C/c2ccc(C(=O)O)cc2)SC1=S, CC1CN(C(=O)Nc2ccc(C(=O)NCCc3ccc(Cl)cc3)cc2)c2ccccc2S1 (stereo not given)

Activity change, negative = displacement, inactive:
COc1ccc(COC(=O)N/N=C2/C[C@@H](O)[C@@H](O)[C@@H]3[C@@H]4C(=O)N(C(C)(C)C)C(=O)[C@H]4CC[C@@H]23)cc1 -3.65% [at 15.3 µM]
